Measured values: paper PMC10668032
This is one part of the list. At the low end of the ranking, values are background and their order means little.

Target: SIX1-Q177R homeodomain (UniProt Q15475)
Assay: universal protein binding microarray
Settings: Universal all-10-mer PBM (8x60K, AMADID 030236), 300 nM GST-tagged protein, Alexa Fluor 488 anti-GST; buffer, salt, pH and temperature not stated; high values mean tight binding; most listed sequences are background and not binding sites; double strand, one strand shown

Row | Sequence | binding signal [E-score]
1 | GGTGATAA | 0.102
2 | GATAATTA | -0.164
3 | GATTCTGA | -0.188
4 | CACCAAAG | 0.308
5 | AACCTCAG | -0.0991
6 | CCGGTAGG | -0.0661
7 | AATGTACC | -0.0285
8 | CTTGCGAA | 0.0707
9 | GTGAATAA | -0.124
10 | CGAGATTA | -0.154
11 | AGATGATG | -0.17
12 | ACTTCCTC | -0.0321
13 | ACGGGAGG | 0.00097
14 | GTCACCGA | 0.175
15 | AGACTCCG | -0.00135
16 | GGGTCACA | 0.202
17 | AACTCGGG | 0.108
18 | GACGTTCA | -0.0855
19 | CCGCGGCC | 0.0535
20 | ATGCGGCG | -0.0426
21 | ATCAATCA | -0.237
22 | CAAGAAGC | -0.164
23 | TCCCCCGA | 0.0669
24 | ATAAGTTG | -0.151
25 | ACTGGTCC | -0.0613

Row | Sequence | binding signal [E-score]
26 | TCCAGCAA | -0.109
27 | CTTTGCTC | -0.232
28 | GTAGGCAC | 0.0564
29 | CTTATTGA | -0.102
30 | ACCGTCCC | 0.00799
31 | ACCAAGCT | -0.0625
32 | ATTGACTC | 0.162
33 | GTGGAGCA | -0.012
34 | AACGTGAT | -0.0835
35 | ACCGAGCT | -0.0331
36 | AGGATCCG | 0.0326
37 | GATGGGAA | 0.0399
38 | ACCATAAT | -0.0891
39 | CTTGCGCA | 0.0479
40 | AGGAACGC | -0.207
41 | AATTAGCA | -0.0799
42 | ACACGCCT | 0.416
43 | ACGTACGG | 0.048
44 | ATCACCCC | 0.204
45 | GGCTAACA | 0.0766
46 | CCCTCTCG | 0.0163
47 | GGCAGTGA | -0.0498
48 | CGCGTTAA | -0.068
49 | CTAGGGTA | 0.236
50 | CGGATTAG | 0.0689

Row | Sequence | binding signal [E-score]
51 | CTGGAATA | -0.0741
52 | ATGTGTAA | 0.225
53 | CCACAGAG | 0.0617
54 | GATTCAGC | -0.0999
55 | ACCATGCT | 0.151
56 | CAATTTCG | 0.0106
57 | ATGCAAGA | -0.25
58 | CCGTAGAC | -0.127
59 | GCTACGCC | -0.0804
60 | GTAGGTCA | -0.072
61 | GGTCTGTA | -0.0178
62 | ACAACTGC | -0.201
63 | TAGGTTCA | -0.0045
64 | TGCTCACA | 0.0192
65 | AACGCCCT | -0.16
66 | AATCCTGT | -0.0147
67 | CGAGGTAA | -0.063
68 | CCGTTTAC | -0.0007
69 | AACCTCGA | -0.182
70 | AGCATTCA | -0.122
71 | CTGGTAAG | 0.0214
72 | CCGAGCGC | 0.0632
73 | CCCAATAG | -0.0482
74 | CCAGCGAA | -0.0865
75 | GGGAGCAA | -0.25

Row | Sequence | binding signal [E-score]
76 | ACAGAAAA | -0.204
77 | GCCTCCTA | -0.0638
78 | ATGTGACA | 0.0732
79 | ACGCCCAC | 0.208
80 | CATAAGGC | -0.12
81 | CCAGTCAG | -0.199
82 | CACCTGCA | 0.213
83 | AAGTCGTA | -0.196
84 | AGTGCAGG | 0.084
85 | GGATAAGA | -0.118
86 | GAGTGACA | 0.242
87 | GAACCAAC | 0.00366
88 | GGTGACTA | 0.0602
89 | CCAAGCCC | 0.155
90 | CGAATCAA | -0.1
91 | ACTTTGAG | 0.0749
92 | ACTGCCTC | -0.0769
93 | TAAAAGAA | -0.058
94 | AACTAACT | -0.21
95 | AACATGGG | 0.0263
96 | AGTCCCAT | -0.308
97 | CGAAGAGA | -0.119
98 | AATCAGTA | 0.0529
99 | AAGTACCA | -0.0836
100 | GAACTCTA | 0.103

Row | Sequence | binding signal [E-score]
101 | AGGCCTAC | -0.139
102 | CGAGGCTA | -0.0243
103 | GAATCGAA | 0.00791
104 | CTGTGACC | 0.00507
105 | AGACTTTG | -0.294
106 | CACAGCAA | -0.0185
107 | CGTGGGTC | 0.0452
108 | ACAGATCC | -0.0792
109 | ATGCACCC | 0.19
110 | ACTACAGA | -0.117
111 | CCATGTAG | -0.17
112 | AAATATCG | -0.26
113 | ATCAGGCA | -0.266
114 | ATACAGAG | 0.0455
115 | GAATCATA | 0.0819
116 | TATCGAAA | -0.0429
117 | AGCGAGCT | -0.174
118 | AAGGTTCC | -0.0376
119 | CTTAGCAA | -0.186
120 | GATAGTAA | -0.093
121 | GATCATAA | 0.0569
122 | AATATTGA | -0.133
123 | CCCGATGC | 0.0856
124 | GCAACCCC | 0.184
125 | AACGTCCT | -0.0587

Row | Sequence | binding signal [E-score]
126 | ATGCATTA | 0.00219
127 | AAGGGTAT | 0.262
128 | AGCACTCA | -0.0346
129 | TCATGACA | 0.138
130 | GGCGAAAA | -0.106
131 | CTGCCTCA | -0.0607
132 | CGCGATAC | 0.254
133 | CTATAACA | 0.228
134 | AGGACCAT | -0.0556
135 | ACGCAGCT | -0.108
136 | CGGGTAGC | 0.00485
137 | GGCAGAAC | -0.11
138 | CAAGCCGC | -0.147
139 | ACGCTTTA | -0.0641
140 | CTCCTCGC | -0.00635
141 | ACTGAAAC | 0.0271
142 | CTTCAACC | -0.0183
143 | ATAGGGAG | -0.06
144 | CCTCGGTA | 0.00078
145 | TCCGACCA | 0.148
146 | CCACAGGG | -0.0462
147 | GCCCATAA | -0.0742
148 | ACTAATGA | -0.0261
149 | CAATGCGG | 0.119
150 | AGAGTTAC | 0.146

Row | Sequence | binding signal [E-score]
151 | GCGGGGCA | 0.0306
152 | GCACCTCA | 0.162
153 | CCCAGACG | -0.098
154 | ATGTAGTC | -0.257
155 | GATAGGGA | -0.103
156 | AGTGACGG | -0.0528
157 | AACCTCTC | -0.121
158 | CCAAGGCA | -0.0215
159 | TACTGCCA | -0.125
160 | CATCTACC | -0.0761
161 | GGAAACTA | -0.0904
162 | AATGGTAC | 0.0438
163 | AGCGTATA | -0.168
164 | AAATGTGA | -0.039
165 | GTGTTAAC | 0.415
166 | CGCACCGC | 0.209
167 | AGTTATCG | -0.0301
168 | CGAGCCCC | 0.0592
169 | CACCGAGA | 0.276
170 | AGGCTTTG | -0.185
171 | GCTTTGAC | 0.111
172 | AAGAACCG | -0.0614
